The labels stand for the following.
B1: LINE1-full (parent)
chain: UACGUAGGUGGUUUUCCCCUGAUAGUGCUAAGGGGGCCUGGAAGUUUGGACUGGGCAGAGCUCAACACAGCGUGGCAAAGUGGCUGUGGCUAGACUGCCUCUCUGGAUUCCUCGUCACUCAGCAGGGCAUCUCUGAGAGAAAUGCC

The source gives no read counts; variants with many changes may rest on few reads.

The results in this text go back to the RNAGym collection of RNA variant scans (doi:10.7554/elife.90254).

Variants of B1 are the subject of this data set. Description: self-cleavage, relative activity (ratio to wild type); higher = more cleavage; in vitro, sequencing; the parent is a self-cleaving ribozyme.
For the variant U47C A57G U85G, the self-cleavage was 0.

Consider U52A U130A A140G, for which the self-cleavage was 1.18.

For the variant U47C U87A U104A, the self-cleavage came out at 0.03.

On to G49U A79G A121U U130C, for which the self-cleavage was found to be 1.51.

For U47C A78G U100A, the self-cleavage came out at 0.22.

As for A50U U112C A129G, the self-cleavage was found to be 0.45.

As to U47A U115C A138G, the self-cleavage was 1.94.

In the case of U52C A67C U108A, the self-cleavage was 0.22.

Take C51U U100C A124G: the self-cleavage amounted to 1.6.

In the case of U52C U108A U132A, the self-cleavage amounted to 0.92.

Consider A50G G125C U134G, for which the self-cleavage came out at 1.68.

As for U52A A64G U115C, the self-cleavage worked out at 0.96.

On to C51U A65G G83C, for which the self-cleavage came out at 0.

For the variant U47C U52A U104A, the self-cleavage was 1.53.

Regarding U47C U73C U96A U134A, the self-cleavage was determined as 0.07.

Take U52A A65G A136G: the self-cleavage is 0.04.

For U47C U102C A141G, the self-cleavage was found to be 1.97.

Take U52C A77U C113U A141U: the self-cleavage was found to be 1.14.

U52C U132C A136G A138U: the self-cleavage was 0.

As for G48A A64G A67G U112C, the self-cleavage was 0.28.

With U52C A77U A121G, the self-cleavage was determined as 0.

With U52A A67G U81C, the self-cleavage came out at 0.1.

On to G49U A50G A64C U115C, for which the self-cleavage stood at 0.

For the variant U52A U100C A124U, the self-cleavage was 1.88.

Regarding U52C U62C U87C, the self-cleavage turned out to be 0.

Consider A50C C99G U100C, for which the self-cleavage amounted to 1.05.

Regarding A50U A79U A129G U143C, the self-cleavage was found to be 1.87.

In the case of G49U U87C U108C, the self-cleavage came to 0.

With U47C A94G U109C A129U, the self-cleavage amounted to 0.

Regarding U52C U91C A140G U143A, the self-cleavage was found to be 0.57.

Regarding U52C U62C A94U, the self-cleavage amounted to 0.08.

Turning to U52A A57U U81C, the self-cleavage amounted to 0.1.

U52A A69G U73C U134C: the self-cleavage was found to be 1.53.

U47C U85C C118U: the self-cleavage was determined as 0.21.

For A50U A57U U143C, the self-cleavage was 0.1.

Consider U47G A59G G75A A129U, for which the self-cleavage turned out to be 0.12.

Consider U47C A69G U81A, for which the self-cleavage is 0.81.

For U52C U115G A142G, the self-cleavage was determined as 1.53.

Regarding U47C U62C A92G, the self-cleavage is 0.

Regarding U47C G60U G105A A138G, the self-cleavage is 0.01.

As for A50U A57C A64G C95U G122U U134A, the self-cleavage was 0.01.

Take U47G A77G A136G: the self-cleavage was 0.

In the case of U52A U81C U130C, the self-cleavage was determined as 1.24.

On to A50U A69G U119C, for which the self-cleavage is 0.

On to U52A A64G U108C G114C A121G, for which the self-cleavage was 0.41.

In the case of U52A A121G U132A, the self-cleavage was determined as 2.78.

U52A A77U U104C: the self-cleavage came to 0.92.

Turning to U52C C103A U134C, the self-cleavage worked out at 1.52.

Consider A50G A117U U119A, for which the self-cleavage came to 1.2.

Take G48A A94G G126A: the self-cleavage came to 0.11.

With A50C A67G U73A, the self-cleavage was found to be 1.19.

Take U52A U100C U115A: the self-cleavage was determined as 2.35.

In the case of U47A U104G U143G, the self-cleavage is 1.1.

As for U52A U87C U96C A107G, the self-cleavage came out at 0.

As to U47G A69G U73A A107G A117U G125U, the self-cleavage was 0.

For U47C A79G U85A A129G, the self-cleavage worked out at 0.

In the case of U52A A78G U108C G137U, the self-cleavage is 2.04.

For the variant U52A A57U A59U A67U A124G, the self-cleavage worked out at 0.07.

Regarding G48U G93U A140U A142G, the self-cleavage is 0.03.

As to U52A U102A U134C, the self-cleavage is 0.68.

Turning to G48A U109C A140G, the self-cleavage worked out at 0.33.

Regarding U47A U130C C145U, the self-cleavage came to 2.16.

Consider U47A U100C U115A A141G, for which the self-cleavage was 1.84.

As for A50G U91C U100C G105A, the self-cleavage is 0.38.

Turning to A50U A92G U134C, the self-cleavage is 1.53.

Turning to U52C A69G A136G, the self-cleavage is 0.2.

Turning to U47C A57G U104A, the self-cleavage amounted to 1.

For G49U A69G A121G A142G, the self-cleavage amounted to 0.33.

For G48A A79G U112A U143C, the self-cleavage is 1.29.

Consider U52C U73A A124G, for which the self-cleavage is 2.04.

Take U52C A77G U109A A140G A142G: the self-cleavage amounted to 2.03.

For the variant G49A A64G U100A, the self-cleavage was 0.17.

For the variant U52C U112C C120U, the self-cleavage was 1.3.

For the variant U52C G88A U130C G139U, the self-cleavage worked out at 0.06.

In the case of U47C A64G U73A A121U A124G, the self-cleavage turned out to be 0.36.

On to U47G A50G U73A, for which the self-cleavage stood at 1.23.

A50U A57U U100G U102A U109C G126A: the self-cleavage was determined as 0.

For the variant A50G A78G U87C, the self-cleavage was found to be 0.14.

Regarding U47C U96A U108A A129G, the self-cleavage came out at 0.15.

Consider U47C C56A U112C, for which the self-cleavage was 0.04.

As for A50G A67G U96C, the self-cleavage worked out at 0.

On to A50G G97A U143C, for which the self-cleavage was determined as 0.04.

Consider U52C U62C A67G, for which the self-cleavage stood at 0.

As to U52C G58U U62C C123U, the self-cleavage amounted to 0.03.

Take C51A G55C A57G U73C: the self-cleavage is 0.

Regarding G53A A65G U73A U96C, the self-cleavage amounted to 0.06.

As for U52C A117G C123U, the self-cleavage worked out at 1.78.

Turning to U47C G58A A140G, the self-cleavage was found to be 0.05.

As for A50U U134A A140G, the self-cleavage is 0.16.

In the case of A50G A121G A140G, the self-cleavage turned out to be 0.34.

Take U52C A57U A92U U108C: the self-cleavage came to 0.57.

Turning to A50G A59G A136G, the self-cleavage came out at 0.16.

For the variant U52C A67G U104C, the self-cleavage was found to be 0.

As to G49U U91C U112C, the self-cleavage came to 0.25.

With U47C G125A U130C, the self-cleavage was found to be 1.74.

U47C U96A A138G A141G: the self-cleavage was 0.38.

Consider U52C U85G U134C, for which the self-cleavage is 0.

Consider U47C U62C C71U, for which the self-cleavage amounted to 0.02.

Turning to A50G A107G U132A, the self-cleavage was 0.74.

Take U52A U85A U104A: the self-cleavage was found to be 0.1.

Take A50G U73A U96C A138U A140G: the self-cleavage was 0.34.

In the case of A50G U91A G105A, the self-cleavage turned out to be 0.65.

Take U47G U52A A142U: the self-cleavage was 1.51.

For the variant U47C A69U U130C A140G, the self-cleavage is 0.14.

With G48A A67C U119A, the self-cleavage amounted to 0.01.

Regarding U52A U132C A136G, the self-cleavage is 1.14.

U47C A79G G127A: the self-cleavage stood at 1.16.

As for U52A U73A U85A, the self-cleavage came to 0.08.

With U52C A57G U100C A141G, the self-cleavage came to 1.75.

Regarding U52C G74A A94G, the self-cleavage was determined as 0.18.

As for U52A A65G C103G, the self-cleavage amounted to 0.03.

As for A50G A69U A79G A141G, the self-cleavage came out at 0.07.

Consider G49A A65G U81G, for which the self-cleavage came out at 0.02.

With A50G A121G U143A, the self-cleavage was 1.37.

A50U A67G U104C: the self-cleavage is 0.11.

A50U U115C A124G: the self-cleavage was determined as 0.84.

With A50U A77U A94G, the self-cleavage came out at 0.17.

For A50G U52A G89A, the self-cleavage came out at 0.05.

Turning to U52C A64U G72A A77U A78G U109C, the self-cleavage came to 0.07.

U47C A50U A129G: the self-cleavage turned out to be 1.53.

For the variant A50U U96A U115C A136G, the self-cleavage was 0.04.

U47C C99U U132C U143C: the self-cleavage came out at 1.34.

For A50G U100C U112C, the self-cleavage was 0.77.

For the variant G48U U96G U100C, the self-cleavage is 0.63.

For the variant U47C U85C U104C A138G G144A, the self-cleavage stood at 0.31.

In the case of U52A U96C A136U, the self-cleavage is 0.46.

With A50G A57C U104A, the self-cleavage was 0.

In the case of A50G U102A A124U U130A, the self-cleavage worked out at 1.11.

On to U52A C84A U87G U132C, for which the self-cleavage turned out to be 0.12.

U47G U115C A129G: the self-cleavage is 0.77.

For G48A U96C A117U, the self-cleavage came out at 0.06.

Turning to A50G G83A A136U, the self-cleavage is 0.11.

For A50G U52A U85A U104C U119C, the self-cleavage came out at 0.

Consider U52A A92G A138G, for which the self-cleavage amounted to 0.

A50G U100C C133U: the self-cleavage was 2.24.

Regarding A50G U87C A140G, the self-cleavage came out at 0.57.

Take U47C U119C A140G: the self-cleavage stood at 1.86.

Take U52C C71U U115C: the self-cleavage came out at 0.7.

With U47C U52C U119C A140G, the self-cleavage amounted to 1.84.

Take G49A A64U C84U U87A: the self-cleavage was 0.04.

With U52C A67U U112C, the self-cleavage came to 0.1.

For the variant A50C U85A U112C A141G, the self-cleavage amounted to 0.03.

With U52A C84U U130C, the self-cleavage was found to be 0.11.

Take A50G A77G U130A U134A: the self-cleavage turned out to be 1.66.

With U52C U130C A140G, the self-cleavage worked out at 1.17.

Consider U52A U100A U108C, for which the self-cleavage came out at 1.03.

On to U47C A57U U96C G137U A141G, for which the self-cleavage was 0.11.

For the variant U47C A78G U132A, the self-cleavage is 1.72.

In the case of A50G U130C A141G, the self-cleavage worked out at 1.49.

On to A50G U87A A121C A140G, for which the self-cleavage was 0.08.

On to U52A U73C A77U U108C, for which the self-cleavage is 1.45.

As to U47G U52C U134A, the self-cleavage was found to be 1.5.

Take G49U U102C U132C A138U: the self-cleavage was determined as 1.33.

Turning to U52A A78G A124U A141G, the self-cleavage came to 1.86.

On to A50G U87C U91A, for which the self-cleavage was found to be 0.24.

Consider U47C A79C A117C, for which the self-cleavage was found to be 2.

On to A50G U91A U100C A129U, for which the self-cleavage came out at 0.66.

On to A50G C84U U85C, for which the self-cleavage came to 0.09.

For U47G A92G U134A, the self-cleavage came out at 0.1.

As for U52C C84U U115A A136G, the self-cleavage turned out to be 0.22.

As for U52C U62C U102C U143A, the self-cleavage turned out to be 0.

Turning to A50G A64U A121G, the self-cleavage is 0.92.

Turning to U47C A57G U85A U91C A92U, the self-cleavage was found to be 0.

Consider G49A A67G U100A, for which the self-cleavage amounted to 0.15.

Regarding U52A A77G U85C, the self-cleavage amounted to 0.44.

With U52C U81G C131U, the self-cleavage came out at 1.6.

As to U47C U62C U132C A142G, the self-cleavage turned out to be 0.13.
